Results: paper PMC4336329 (PLoS ONE, 2015)
Out of some 310,000 compounds screened, about 2,200 (0.71%) showed an effect of 50% or more. Effects have a minus sign here. Some of the results follow.

target: human ether-à-go-go-related gene (hERG) potassium channel (human, UniProt Q12809); assay: primary screen, population patch clamp on CHO cells stably expressing hERG
Sequence (Q12809 whole entry, looked up): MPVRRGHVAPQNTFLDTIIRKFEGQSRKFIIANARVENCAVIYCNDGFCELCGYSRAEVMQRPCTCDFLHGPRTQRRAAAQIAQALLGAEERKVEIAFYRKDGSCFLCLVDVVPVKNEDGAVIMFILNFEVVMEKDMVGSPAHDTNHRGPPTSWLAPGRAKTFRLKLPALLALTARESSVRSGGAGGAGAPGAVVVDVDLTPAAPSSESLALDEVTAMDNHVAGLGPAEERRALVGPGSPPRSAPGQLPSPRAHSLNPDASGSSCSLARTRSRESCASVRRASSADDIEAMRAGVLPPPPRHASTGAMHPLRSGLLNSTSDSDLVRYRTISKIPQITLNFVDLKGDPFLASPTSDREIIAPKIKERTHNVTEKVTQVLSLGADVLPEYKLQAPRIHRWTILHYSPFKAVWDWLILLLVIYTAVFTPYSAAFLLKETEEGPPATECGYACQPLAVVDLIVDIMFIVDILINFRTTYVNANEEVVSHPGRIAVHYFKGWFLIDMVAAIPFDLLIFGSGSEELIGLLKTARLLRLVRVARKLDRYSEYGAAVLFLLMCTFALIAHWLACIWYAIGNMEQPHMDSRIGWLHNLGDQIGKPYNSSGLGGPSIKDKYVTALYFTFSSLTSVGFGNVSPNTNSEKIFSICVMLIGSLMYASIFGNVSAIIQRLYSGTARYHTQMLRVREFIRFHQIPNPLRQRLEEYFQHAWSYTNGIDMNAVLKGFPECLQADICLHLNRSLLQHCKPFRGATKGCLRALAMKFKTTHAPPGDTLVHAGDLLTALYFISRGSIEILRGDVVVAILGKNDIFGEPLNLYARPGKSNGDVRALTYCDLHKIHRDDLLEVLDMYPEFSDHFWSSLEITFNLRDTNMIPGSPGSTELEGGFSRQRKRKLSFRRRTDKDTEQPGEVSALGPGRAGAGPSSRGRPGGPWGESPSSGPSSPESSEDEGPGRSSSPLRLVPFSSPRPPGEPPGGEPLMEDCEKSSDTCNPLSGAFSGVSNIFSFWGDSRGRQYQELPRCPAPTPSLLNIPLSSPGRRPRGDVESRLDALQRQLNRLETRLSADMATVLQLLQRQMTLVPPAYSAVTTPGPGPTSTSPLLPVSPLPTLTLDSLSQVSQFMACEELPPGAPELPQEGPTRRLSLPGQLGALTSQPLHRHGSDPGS

Point of comparison: CCCCOCCCNC(=S)Nc1ccc(S(=O)(=O)N2CCOCC2)cc1, “hERG current change (%, negative = inhibition) at 1uM” value 9.09%. Against it:
- Cc1cc(C)cc(NS(=O)(=O)c2ccc3c(c2)c(=O)n(C)c(=O)n3C)c1 — lower, 1.74%
- Cc1ccc(C(=O)Nc2c3c(nn2-c2ccccc2)CS(=O)(=O)C3)cc1C — lower, 0.317%
- c1csc(-c2nc3nc4ccccc4nc3n2Cc2ccc3c(c2)OCO3)c1 — higher, 11.9%
- Cc1cc(C=C2C(=O)NC(=O)NC2=O)c(C)n1-c1ccc2c(c1)OCO2 — higher, 13.5%
- CCC(C)Sc1nc2c(c(=O)[nH]c(=O)n2C)n1CC(O)COc1cccc2ccccc12 (stereo not drawn) — lower, 7.44%
- O=C(Cc1ccc([N+](=O)[O-])cc1)NCC1CCCO1 (stereo not drawn) — higher, 9.72%
- O=C(NCc1ccccc1Br)c1ccncc1 — higher, 13.6%
- O=C(Nc1nc(-c2cc(F)ccc2F)cs1)C1=COCCO1 — lower, 2.56%
- Cl.O=C(CCN1CCOCC1)NC12CC3CC(CC(C3)C1)C2 — higher, 10.9%
- COc1cccc(NC(=O)CN(C)C(=O)c2ccc3c(c2)S(=O)(=O)N=C2CCCCCN23)c1 — higher, 14.2%
- CCOC(=O)C1C(=O)C(C(=O)OCC)C(c2cccnc2)NC1c1cccnc1 (stereo not drawn) — lower, 0.543%
- COc1ccc(NC(=O)/C(C#N)=C\c2ccc(OCc3ccc(C(=O)O)cc3)c(OC)c2)cc1 — lower, -12.9%
- COCc1nnc(NC(=O)CC(C)C)s1 — lower, 7.31%
- CCc1nnc(NS(=O)(=O)c2ccc(NC(=S)NC(=O)/C=C/c3ccc(OC)cc3)cc2)s1 — higher, 12.9%
- CS(=O)(=O)N1CCCC(C(=O)NCCCN2CCC(Cc3ccccc3)CC2)C1 (stereo not drawn) — lower, 2.99%
- COc1ccc(CNS(=O)(=O)c2ccc(OC)cc2)cc1 — lower, 8.05%
- CC(CC(=O)NCC1CCCO1)c1ccccc1 (stereo not drawn) — higher, 9.55%
- COc1ccc(-c2nc3ccccc3c(=O)n2O)cc1 — higher, 15.5%
- COc1ccccc1C(=O)NC(CCSC)C(=O)NCC(c1ccccc1OC)N1CCCC1 (stereo not drawn) — lower, -3.45%
- O=S(=O)(c1ccc(F)cc1F)N1CCCN(c2ccc(C(F)(F)F)cn2)CC1 — lower, 5.84%
- Cc1nn(Cc2ccccc2)c(Cl)c1C(=O)NC(C)(C)C — lower, 1.73%
- CCOC(=O)C1(Cc2ccccc2)CCN(Cc2ccc3c(c2)OCCO3)CC1 — lower, -0.488%
- CC(C)(C)OC(=O)[C@H](Cc1ccccc1)NC(=O)c1[nH]cnc1C(=O)Nc1cccc(Cl)c1 — higher, 14.4%
- CC(C)CNC(=O)c1ccccc1NC(=O)c1ccccc1N(C)S(=O)(=O)c1ccccc1 — higher, 11%
- Cc1ccc(CC(=O)OC(C)C(=O)NC2CCCCC2C)cc1C (stereo not drawn) — higher, 21%
- Cc1ccc(NS(=O)(=O)c2c(C)[nH]c(C)c2C(=O)N2CCCCC2)cc1C — lower, 7.36%
- CCOc1cccc(-c2nnc3sc(COc4ccc(OC)cc4)nn23)c1 — lower, 7.23%
- COc1cc(Cl)ccc1OCc1cc(C(=O)N2CCN(c3ccccn3)CC2)no1 — higher, 14.3%
- COc1ccc(/C=C2/S/C(=N/N=C3\CC4CCC3(C)C4(C)C)NC2=O)cc1 (stereo not drawn) — higher, 15.3%
- COc1ccc(NC(=O)C(NCC(C)C)c2ccccc2)cc1Cl (stereo not drawn) — higher, 16.6%
- CCCCn1c(N)c(N(CC(C)C)C(=O)CCNC(=O)c2ccc(Cl)cc2)c(=O)[nH]c1=O — lower, 4.64%
- CCCS(=O)(=O)c1cn2cccc(N)c2c1S(=O)(=O)CCC — lower, 3.04%
- CCC(=O)Nc1ccc(C(=O)n2nc(C)cc2C)cc1 — lower, 1.88%
- Cc1nn(-c2ccccc2)c(C)c1NC(=O)COC(=O)CCc1ccccc1 — lower, -0.14%
- COC(=O)c1cc(COc2ccc3oc(C)c(C(=O)OC(C)C)c3c2)c(C)o1 — lower, 7.32%
- Cc1cccc2[nH]c3c(N4CC=C(c5ccc(F)cc5)CC4)ncnc3c12 — lower, 8.01%
- O=C(OC(C(=O)NCc1cccs1)c1ccccc1F)c1ccco1 (stereo not drawn) — higher, 16.8%
- O=C(O)c1ccc(CSc2nnnn2-c2ccc(F)cc2)cc1 — lower, 6.99%
- CCN(CC(=O)Nc1cccc(S(=O)(=O)N(C)c2ccccc2)c1)Cc1cccs1 — lower, -17.1%
- CCOc1ccc(NC(=O)CN(C)C(=O)CCCc2c[nH]c3ccccc23)cc1OCC — higher, 20%
- Cc1cc(NCCCN2CCOCC2)n2nc(C)c(-c3ccccc3)c2n1 — lower, 8.8%
- Cc1ccc(C(=O)Nc2cccc(C(=O)N3CCN(C)CC3)c2)cc1 — lower, 1.56%
- O=C(Nc1ccc(N2CCN(C(=O)c3ccccc3)CC2)c(Cl)c1)c1ccc(Br)o1 — lower, -8.64%
- Cc1c(Br)c([N+](=O)[O-])nn1CC(=O)Nc1cccc2nonc12 — higher, 14.7%
- CN1CCN(c2nc3c(c(=O)n(C)c(=O)n3C)n2CC(=O)C23CC4CC(CC(C4)C2)C3)CC1 — higher, 9.83%
- CC(=O)Nc1ccc(S(=O)(=O)NC2Cc3ccccc3C2)cc1 — higher, 14.2%
- C=CCn1c(SCC(=O)NCCc2ccccc2)nc2c([nH]c3ccccc32)c1=O — lower, 8.25%
- COc1ccccc1C(=O)Nc1ccccn1 — lower, 3.42%
- Cc1ccccc1OCC(=O)N/N=C1\SCC(=O)N1Cc1ccccc1 — lower, 2.71%
- O=C(NCCC1=CCCCC1)c1cnsn1 — higher, 15.3%
- C=CCn1c(N2CCN(c3ccc(OC)cc3)CC2)nc2c1c(=O)n(C)c(=O)n2C — lower, 2.71%
- O=C(Nc1ccc(F)c(F)c1)C1CCN(S(=O)(=O)c2cccs2)CC1 — lower, 7.45%
- O=C(/C(=N\Nc1ccc(Br)cc1)Sc1nnnn1-c1ccccc1)c1ccccc1 — higher, 13.8%
- Cc1ccc(S(=O)(=O)CCC(=O)N2CCc3ccccc32)cc1 — lower, 5.5%
- CC1CCc2c(C(=O)Oc3cccc(-n4cnnn4)c3)csc2C1 (stereo not drawn) — lower, -2.65%
- Cc1cc(/C=C(\C#N)C(=O)N2CCOCC2)c(C)n1C1CCCC1 — lower, 5.88%
- C#CCOCCOCCOCCNc1nc(N2CCOCC2)nc(N2CCN(C(=O)[C@H](CCC(=O)O)n3cc(C(N)[C@H](C)CC)nn3)CC2)n1.Cl (stereo partly drawn) — higher, 11.9%
- COc1ccc(OC)c(NC(=O)COC(=O)CCCN2C(=O)c3ccccc3C2=O)c1 — higher, 10.4%
- CNc1ncc(Cc2ccccc2)s1 — lower, 1.64%
- COc1ccccc1OCC(=O)NC1CCCCCC1 — higher, 10.2%
- CC(=O)N1c2ccc(S(=O)(=O)N(C)CC(=O)NC3CCCCC3C)cc2CC1C (stereo not drawn) — higher, 17.5%
- COc1ccc(N/C(=N/c2nc(C)cc(C)n2)NC(=O)Nc2ccc(Cl)c(Cl)c2)c(OC)c1 — lower, -4.86%
- C[C@@H](N)C(=O)NCC1CCC(C(=O)N[C@@H](Cc2ccccc2)C(=O)O)CC1.Cl (stereo partly drawn) — higher, 15.7%
- Cn1c(S(=O)(=O)O)nc2ccccc21 — higher, 14.2%
- Clc1ccc(CCNCc2ccncc2)c(Cl)c1.O=C(O)C(=O)O — lower, -13.2%
- O=C(Nc1nnc(S(=O)(=O)N2CCCCCC2)s1)c1ccccc1F — higher, 12.7%
- CCCn1c(CCC(=O)O)ccc1-c1ccc(F)cc1 — higher, 12.8%
- O=C(CCCl)Nc1ccc(S(=O)(=O)NCc2ccco2)cc1 — lower, 0.0894%
- O=C(COc1ccc(Br)cc1)N1CCNC1=O — lower, 7.31%
- COc1cc(C=O)ccc1OCC(=O)N1CCOCC1 — lower, 8.82%
- CSc1sc(-c2nnc(SCC(=O)Nc3ccc(Cl)cc3)n2C)c2c1C=CCC2 — lower, 6.35%
- CCOC(=O)C1CCN(C(=O)CCCn2nc(CC)n3c(cc4occc43)c2=O)CC1 — lower, 1.18%
- Cc1c(O)c2c(=O)n(-c3ccccc3)c(-c3ccccc3)cc2oc1=O — lower, 4.71%
- COc1cccc(C(C)NC(=O)c2ccncc2)c1 (stereo not drawn) — higher, 26.6%
- COCC(=O)N1CCC(Oc2ccc(C(=O)NC(C)c3nccs3)cc2)CC1 (stereo not drawn) — higher, 10.4%
- COc1ccccc1NC(=O)CSc1nnnn1Cc1ccccc1 — lower, 3.72%
- CNS(=O)(=O)c1ccc(C(C)(C)C)cc1 — lower, 7.8%
- CCCC(C(=O)NCc1ccco1)N(CC1CCCO1)C(=O)CNS(=O)(=O)c1ccc(F)cc1 (stereo not drawn) — higher, 14.1%
- COC(=O)/C(=C\c1cccnc1)NC(=O)c1ccc(OCc2ccccc2)cc1 — lower, 4.19%
- COc1ccc(C2NC(=O)c3n[nH]c(C)c32)c(OC)c1 (stereo not drawn) — higher, 10%
- COc1c(Cl)cccc1-c1cn2ccc(C)cc2n1 — higher, 14.4%
- O=C(CN1CCN(Cc2ccccc2)CC1)NC(c1ccccc1)c1ccccc1.O=C(O)C(=O)O — lower, -1.56%
- COc1ccc(-n2cc(-c3ccccc3)c3c(N4CCOCC4)ncnc32)cc1 — higher, 10.3%
- O=C(CCSCCC(=O)NCc1ccc(F)cc1)NCc1ccc(F)cc1 — lower, 6.06%
- CC(=O)NCC(=O)OCC(=O)c1ccc2ccccc2c1 — lower, 6.73%
- NCCCCC(N)c1cn([C@@H](CCC(=O)O)C(=O)N2CCNCC2)nn1 (stereo partly drawn) — higher, 12.1%
